# Laboratory results: article PMC11995724, “Antibiotic target discovery by integrated phenotypic and activity-based profiling of electrophilic fragments” (Cell chemical biology, 2025)
# The campaign covered roughly 3,200 compounds. About 75 (2%) showed an effect of 50% or more. The list shows a part of the results.
# Tested on: T1, S. aureus MSSA476
# T1 construct: MSSA476
# Design: species or system S. aureus MSSA476 (TSB) or V. cholerae SAD30 (LB); 384-well bacterial growth screen at 25 uM, OD600 relative to DMSO control
# Details: relative growth, OD600, TSB; 25 µM; inhibitor
row,SMILES,% of control remaining [%]
1,"N#CC(=Cc1cccc(Oc2ccccc2)c1)C(=O)NC(N)=O [8-D07, {2-cyano-2-[(3-phenoxyphenyl)methylidene]acetyl}urea]",113.195
2,"CCc1cccc(CC)c1NC(=O)C(C#N)=Cc1ccc(C)o1 [8-P11, 2-cyano-N-(2,6-diethylphenyl)-3-(5-methylfuran-2-yl)prop-2-enamide]",145.062
3,"C=CC(=O)NCc1c(C)nc2ccccn12 [1-C08, N-({2-methylimidazo[1,2-a]pyridin-3-yl}methyl)prop-2-enamide]",105.846
4,"CC(=Cc1ccccc1)C=C(C#N)C(=O)NC1CC1 [9-F12, 2-cyano-N-cyclopropyl-4-methyl-5-phenylpenta-2,4-dienamide]",106.367
5,"CC(Cl)C(=O)N(C)Cc1cc(Cl)cn1C (centres unmarked) [6-P21, 2-chloro-N-[(4-chloro-1-methyl-1H-pyrrol-2-yl)methyl]-N-methylpropanamide]",90.8293
6,"CC(C)c1ccccc1NC(=O)CCl [4-F06, 2-chloro-N-[2-(propan-2-yl)phenyl]acetamide]",113.197
7,"C=CC(=O)N1CCC(C(=O)Nc2cccc(N3CCCC3=O)c2)CC1 [2-H04, N-[3-(2-oxopyrrolidin-1-yl)phenyl]-1-(prop-2-enoyl)piperidine-4-carboxamide]",104.091
8,"Cc1ccc(Oc2ccc(NC(=O)CCl)cc2)cc1 [4-K03, 2-chloro-N-[4-(4-methylphenoxy)phenyl]acetamide]",86.8985
9,"C=CC(=O)NC(Cc1nc(C)no1)c1ccccc1 (centres unmarked) [1-B22, N-[2-(3-methyl-1,2,4-oxadiazol-5-yl)-1-phenylethyl]prop-2-enamide]",122.022
10,"Cc1cc(C(=O)CCl)c(F)cc1F [10-O03, 2-chloro-1-(2,4-difluoro-5-methylphenyl)ethan-1-one]",143.438
11,"N#CC(=Cc1ccncc1)C(=O)Nc1cccc(Cl)c1 [8-B19, N-(3-chlorophenyl)-2-cyano-3-(pyridin-4-yl)prop-2-enamide]",109.212
12,"C=CC(=O)N1CCC(C(=O)NCc2ccccc2)CC1 [1-I05, N-benzyl-1-(prop-2-enoyl)piperidine-4-carboxamide]",97.0549
13,"COc1ccc(N2C(=O)C=CC2=O)c([N+](=O)[O-])c1 [10-L11, 1-(4-methoxy-2-nitrophenyl)-2,5-dihydro-1H-pyrrole-2,5-dione]",100
14,"C=CC(=O)NCc1ncoc1C(F)(F)F [3-E18, N-{[5-(trifluoromethyl)-1,3-oxazol-4-yl]methyl}prop-2-enamide]",106.922
15,"O=C(CCl)NC1CCC(c2nc(-c3ccccc3)n[nH]2)CC1 (centres unmarked) [6-G19, 2-chloro-N-[4-(3-phenyl-1H-1,2,4-triazol-5-yl)cyclohexyl]acetamide]",89.4634
16,"Cc1ccc(NC(=O)C(C#N)=Cc2ccccc2OC(F)F)c(C)c1 [9-K17, 2-cyano-3-[2-(difluoromethoxy)phenyl]-N-(2,4-dimethylphenyl)prop-2-enamide]",71.9101
17,"Cc1ccc(NC(=O)C2CSCN2C(=O)CCl)c(C)c1 (centres unmarked) [5-M07, 3-(2-chloroacetyl)-N-(2,4-dimethylphenyl)-1,3-thiazolidine-4-carboxamide]",111.475
18,"C=CC(=O)N1CCC(C(=O)NCC(O)c2c(F)cccc2F)CC1 (centres unmarked) [2-P14, N-[2-(2,6-difluorophenyl)-2-hydroxyethyl]-1-(prop-2-enoyl)piperidine-4-carboxamide]",92.9504
19,"CC(Cl)C(=O)N1CCC(Cc2ccccc2)CC1 (centres unmarked) [5-K21, 1-(4-benzylpiperidin-1-yl)-2-chloropropan-1-one]",82.3315
20,"O=C(CCl)NCc1ccc(C(=O)N2CCOCC2)cc1 [5-L14, 2-chloro-N-{[4-(morpholine-4-carbonyl)phenyl]methyl}acetamide]",83.4244
21,"CC(Cl)C(=O)N(c1cccc(C#N)c1)C1CCC1 (centres unmarked) [6-N22, 2-chloro-N-(3-cyanophenyl)-N-cyclobutylpropanamide]",85.3659
22,"CC(Cl)C(=O)N(C)c1ccccc1 (centres unmarked) [5-D06, 2-chloro-N-methyl-N-phenylpropanamide]",107.104
23,"CC(C)NC(=O)C(C#N)=Cc1ccc(C(C)C)cc1 [9-I11, 2-cyano-N-(propan-2-yl)-3-[4-(propan-2-yl)phenyl]prop-2-enamide]",89.588
24,"CC(C)c1noc2ncc(C(=O)N3CCSSCC3)cc12 [10-F21, 5-[3-(propan-2-yl)-[1,2]oxazolo[5,4-b]pyridine-5-carbonyl]-1,2,5-dithiazepane]",115.625

row,SMILES,% of control remaining [%]
1,"C=CC(=O)N(C)CC(=O)N1CCN(c2ccccc2[N+](=O)[O-])CC1 [2-L04, N-methyl-N-{2-[4-(2-nitrophenyl)piperazin-1-yl]-2-oxoethyl}prop-2-enamide]",93.2985
2,"O=C(CN(CC1CCCO1)C(=O)CCl)N1CCCC1 (centres unmarked) [7-D18, 2-chloro-N-[2-oxo-2-(pyrrolidin-1-yl)ethyl]-N-[(oxolan-2-yl)methyl]acetamide]",96.3893
3,"Cn1ccnc1C(NC(=O)CCl)c1ccccc1 (centres unmarked) [4-H20, 2-chloro-N-[(1-methyl-1H-imidazol-2-yl)(phenyl)methyl]acetamide]",163.888
4,"CC(Cl)C(=O)NCC1CCN(C)c2ccccc21 (centres unmarked) [7-J11, 2-chloro-N-[(1-methyl-1,2,3,4-tetrahydroquinolin-4-yl)methyl]propanamide]",101.099
5,"COc1cc(C=C(C#N)C(=O)Nc2c(C)cc(C)cc2C)cc(OC)c1 [8-A18, 2-cyano-3-(3,5-dimethoxyphenyl)-N-(2,4,6-trimethylphenyl)prop-2-enamide]",102.241
6,"Cl.NC(=O)c1ccccc1N1CCC(NC(=O)CCl)CC1 [7-P14, 2-[4-(2-chloroacetamido)piperidin-1-yl]benzamide hydrochloride]",99.529
7,"N#CC(=Cc1ccc(O)cc1)C(=O)Nc1ccc(Cl)cc1Cl [9-G22, 2-cyano-N-(2,4-dichlorophenyl)-3-(4-hydroxyphenyl)prop-2-enamide]",78.2022
8,"O=C(CCl)Nc1ccccc1Cc1ccccc1 [4-N22, N-(2-benzylphenyl)-2-chloroacetamide]",81.1815
9,"C=CC(=O)Nc1cnc2cc(C)nn2c1 [2-M13, N-{2-methylpyrazolo[1,5-a]pyrimidin-6-yl}prop-2-enamide]",109.312
10,"C=CC(=O)N(C)Cc1nc2c(cnn2C)c(=O)[nH]1 [3-L08, N-methyl-N-({1-methyl-4-oxo-1H,4H,5H-pyrazolo[3,4-d]pyrimidin-6-yl}methyl)prop-2-enamide]",105.529
11,"CC(Cl)C(=O)N(Cc1ccsc1)C1CC1 (centres unmarked) [7-G11, 2-chloro-N-cyclopropyl-N-[(thiophen-3-yl)methyl]propanamide]",90.1099
12,"O=[N+]([O-])c1ccccc1S(=O)(=O)N1CCSSCC1 [10-N09, 5-(2-nitrobenzenesulfonyl)-1,2,5-dithiazepane]",124.688
13,"C=CC(=O)N1CCC(c2nc(C3CCC3)no2)CC1 [2-O04, 1-[4-(3-cyclobutyl-1,2,4-oxadiazol-5-yl)piperidin-1-yl]prop-2-en-1-one]",99.5648
14,"C=CC(=O)NCc1nc2cc(F)ccc2o1 [3-N20, N-[(5-fluoro-1,3-benzoxazol-2-yl)methyl]prop-2-enamide]",121.55
15,"C=CC(=O)N1CCCC(CNC(C)=O)C1 (centres unmarked) [3-E15, N-{[1-(prop-2-enoyl)piperidin-3-yl]methyl}acetamide]",90.9012
16,"C=CC(=O)NCCC(=O)N1CCSC(C)(C)C1 [3-G18, N-[3-(2,2-dimethylthiomorpholin-4-yl)-3-oxopropyl]prop-2-enamide]",102.046
17,"C=CC(=O)Nc1ccc(-c2nc3cc(C)ccc3o2)cc1 [1-D20, N-[4-(5-methyl-1,3-benzoxazol-2-yl)phenyl]prop-2-enamide]",123.78
18,"CC(Cl)C(=O)Nc1cc(Cl)c(Cl)cc1Cl (centres unmarked) [4-N13, 2-chloro-N-(2,4,5-trichlorophenyl)propanamide]",91.8533
19,"O=C(CCl)Nc1ccc(-c2ccccc2)cc1 [4-N10, N-{[1,1'-biphenyl]-4-yl}-2-chloroacetamide]",105.193
20,"CCOC(=O)c1[nH]c(C)c(C(=O)CCl)c1C [10-A10, ethyl 4-(2-chloroacetyl)-3,5-dimethyl-1H-pyrrole-2-carboxylate]",136.563
21,"O=C(CCl)Nc1ccc(S(=O)(=O)N2CCCCC2)cc1 [4-H06, 2-chloro-N-[4-(piperidine-1-sulfonyl)phenyl]acetamide]",103.287
22,"C=CC(=O)N1CCCC2(CCCCO2)C1 (centres unmarked) [3-O09, 1-{1-oxa-8-azaspiro[5.5]undecan-8-yl}prop-2-en-1-one]",90.5529
23,"N#CC(=Cc1ccc(-c2ccccc2Cl)o1)C(=O)N1CCCCC1 [8-F20, 3-[5-(2-chlorophenyl)furan-2-yl]-2-(piperidine-1-carbonyl)prop-2-enenitrile]",110.871
